According to PubChem BioAssay AID1745845 (National Center for Advancing Translational Sciences (NCATS), 2022):
The whole screen tested about 360,000 compounds, of which about 2,600 (0.72%) were called active. This list was built around the results that the source calls inconclusive (neither active nor inactive); the mix of calls is not that of the screen. The call rests on the fitted dose curve; in most records, active means well fitted inhibition curve with a large enough effect; inconclusive means small, poorly fitted or top-dose-only effect; inactive means no such curve, though single readings can be large or run the other way. Potencies of inconclusive entries are doubtful fits and often do not repeat.

Test: Primary qHTS for Inhibitors of ATXN expression; further: nearly all actives have a fitted effect of over 55% in size
Details: HEK-293 ATXN2-luciferase reporter, luminescence, 24 h; activity change, negative = inhibition: at 57 µM (top of the series)
Procedure, shortened: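 ATXN2-luciferase reporter cells (luciferase flanked by upstream and downstream ATXN2 gene portions) were treated 24 h at 37 °C with compounds at up to 57 uM. SteadyGlo luminescence gave expression; GF-AFC fluorescence gave viability.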
On the % scale 0 is the no-effect control and ±100 the full control effect; potency means the concentration at half of the fitted maximal effect; tags describe the fitted curve by direction and shape.

| SMILES | Potency | activity change, negative = inhibition |
| --- | --- | --- |
| CCCCNC(=O)C[C@@H]1C[C@@]2(C(=O)OC)CCCCC=C2N(Cc2ccc(Cl)cc2Cl)C1=O | inconclusive: 25.1 µM [inhibitor, partial curve] | – |
| CCOC(=O)/C(C#N)=C\c1c(OCC)n(CC)c2ccccc12 | – | inactive: -24.5% |
| Cc1cc(NC(=O)CS(=O)(=O)c2cn(Cc3ccc(F)cc3)c3ccccc23)no1 | inconclusive: 21.2 µM [inhibitor, partial curve, poor fit] | – |
| Cc1ccc([C@@H]2CC=C(C(=O)O)[C@H](c3ccccc3)N2S(=O)(=O)c2ccc(C)cc2)cc1 | inconclusive: 35.5 µM [inhibitor, single point] | – |
| Cc1ccc(/C=N/NC(=O)c2ccccc2Oc2ccccc2)o1 | inconclusive: 27.3 µM [inhibitor, single point] | – |
| Cc1ccc(NC(=O)c2cc([N+](=O)[O-])ccc2NCc2cccnc2)cc1Cl | – | inactive: -7.76% |
| OC(CN(Cc1ccccc1)Cc1ccccc1)c1ccccc1 (stereo unspecified) | – | inactive: -11.3% |
| Cc1noc(C)c1C(=O)N1CCN(C(=O)c2sc3cc(Cl)ccc3c2Cl)CC1 | – | inactive: 1.22% |
| CC(C)c1ccccc1NC(=O)COC(=O)c1cc(=O)[nH]c(=O)[nH]1 | inconclusive: 0.267 µM [inhibitor, full curve, poor fit] | – |
| CCn1c(CNc2ccc(Cl)cc2)nnc1SCc1ccc(C)cc1 | inconclusive: 39.8 µM [inhibitor, partial curve, poor fit] | – |
| Cc1cc(C)cc(Oc2coc3cc(OCC(=O)NC4CCCCC4)ccc3c2=O)c1 | – | inactive: 11.4% |
| O=C(NC(=S)N1CCN(c2ccc(Cl)cc2[N+](=O)[O-])CC1)c1cccs1 | inconclusive: 25.1 µM [inhibitor, single point] | – |
| CCOC(=O)c1c(NC(=O)CSc2nnc(-c3ccncc3)n2Cc2ccco2)sc(C)c1C | inconclusive: 12.6 µM [inhibitor, partial curve] | – |
| CCN=C1S/C(=C\c2cc(OCC)c(O)cc2Br)C(=O)N1CC | inconclusive: 35.5 µM [inhibitor, partial curve, poor fit] | – |
| COC(=O)[C@H](Cc1ccccc1)NC(=O)NCCc1ccc(OC)cc1 | – | inactive: 17.5% |
| CNC(=O)c1nn(C)c2c1C(C)(C)Cc1cnc(Nc3ccc(N4CCN(C)CC4)cc3)nc1-2 | active: 1.72 µM | – |
| Cc1ccccc1Cn1c(Cc2ccccc2)nc2ccccc21 | – | inactive: -9.28% |
| COc1ccccc1CNc1nc(Nc2ccc(C)cc2C)c2sccc2n1 | inconclusive: 20 µM [inhibitor, partial curve] | – |
| CC(CC(=O)Nc1cccc(Cl)c1)c1ccccc1 (stereo unspecified) | – | inactive: 3.38% |
| CCCNC(=O)Cn1sc2nc(C)cc(C)c2c1=O | inconclusive: 39.8 µM [inhibitor, single point] | – |
| O=C1OCCC1Sc1nnc(-c2ccc3c(c2)OCO3)o1 (stereo unspecified) | inconclusive: 37.7 µM [inhibitor, single point] | – |
| COc1ccccc1C(=O)Nc1nnc(-c2ccc(F)cc2)s1 | – | inactive: 5.97% |
| CCOC(=O)Cn1cc(C(=O)c2ccco2)c2ccccc21 | active: 31.6 µM | – |
| COc1ccc(-c2noc(N3CCC(C(=O)N4CCN(c5ccccn5)CC4)CC3)n2)cc1 | inconclusive: 15.8 µM [inhibitor, partial curve, poor fit] | – |

| SMILES | Potency | activity change, negative = inhibition |
| --- | --- | --- |
| CCNS(=O)(=O)c1ccc(CCC(=O)N2CCN(c3cc(Cl)ccc3C)CC2)cc1 | inconclusive: 5.97 µM [inhibitor, partial curve, poor fit] | – |
| Clc1cccc(-c2nnc(SC/C=C/c3ccccc3)n2Cc2ccco2)c1 | inconclusive: 25.1 µM [inhibitor, partial curve] | – |
| Nc1ccc(-c2cc3ccccc3oc2=O)cc1 | active: 0.282 µM | – |
| Cc1ccc(C2(CCN)CCOC(C(C)C)C2)cc1 (stereo unspecified) | – | inactive: 4.63% |
| CCC(=O)c1ccc(N2CCCCC2)c(F)c1 | – | inactive: 5.23% |
| Cc1cc(C)c(NS(=O)(=O)c2ccc(-c3cnc(C4CC4)o3)cc2)c(C)c1 | – | inactive: -31% |
| COc1ccc(Cl)cc1-c1cc(C(=O)Nc2ccc(Br)cc2)[nH]n1 | inconclusive: 14.1 µM [inhibitor, partial curve, poor fit] | – |
| CCNC(=O)C1(C)CCCN(Cc2csc3ccccc23)C1 (stereo unspecified) | – | inactive: -5.71% |
| Cc1cccc(NC(=O)c2ccc(C(=O)Nc3cccc(C)c3)nc2)c1 | – | inactive: -18.8% |
| CC(C)CN(C(=O)COC(=O)CSc1ccccc1)c1c(N)n(Cc2ccccc2)c(=O)[nH]c1=O | – | inactive: -6.63% |
| O=C1NC[C@H](CCCCN2C[C@H](Cc3ccc(O)cc3)N(CC3CCCCC3)C(=O)C2=O)N(CC2CCCCC2)C1=O | – | inactive: 3.91% |
| CCCSc1nnc(Sc2nnnn2-c2ccccc2)s1 | inconclusive: 17.8 µM [inhibitor, partial curve, poor fit] | – |
| COc1cc(NC(=O)c2ccc(-c3cccnc3)c3ccoc23)cc(OC)c1OC | – | inactive: -24.1% |
| COCCNC(=O)CCC(=O)N1Cc2cccc(OC)c2Oc2ncccc21 | – | inactive: 0.537% |
| CCCCCCCCN1C(=O)[C@H](CC(=O)N2CCCCC2)C[C@@]2(C(=O)OCC)CCCC=C12 | inconclusive: 39.8 µM [inhibitor, single point] | – |
| O=C1C(=Cc2cccc(F)c2)Cc2ccccc21 | – | inactive: 4.07% |
| CC[C@]12c3[nH]c4ccc(Cl)cc4c3CCN1C(=O)[C@@H](CC(=O)NC/C=C(\C)CCC=C(C)C)C[C@@H]2C(=O)N1CCN(C(=O)c2ccco2)CC1 | inconclusive: 35.5 µM [inhibitor, single point] | – |
| COCCn1c(C)cc(C(=O)CSc2nc(C)cc(C)c2C#N)c1C | – | inactive: -11.2% |
| C/C(=N\NC(=O)C1COc2ccccc2O1)c1ccc(C)o1 (stereo unspecified) | – | inactive: -12.2% |
| CCO[C@H]1OC(C(=O)NCc2ccccc2)=C[C@@H](C2CCCCC2)[C@@H]1CCCO | – | inactive: 8.6% |
| COc1ccc(CNC(=O)CCCn2nc(C)c([N+](=O)[O-])c2C)cc1OC | inconclusive: 4.23 µM [inhibitor, single point] | – |
| Cn1c(Cc2cccc3ccccc23)nnc1SCC(=O)N1CCN(c2ccccc2)CC1 | inconclusive: 15.8 µM [inhibitor, partial curve, poor fit] | – |
| Cc1cccc2sc(N(CCCN(C)C)C(=O)c3ccco3)nc12 | inconclusive: 17.8 µM [inhibitor, partial curve, poor fit] | – |
| O=C(CN1CCN(c2ccccc2F)CC1)Nc1ccc2c(c1)CCC2 | – | inactive: 2.29% |

| SMILES | Potency | activity change, negative = inhibition |
| --- | --- | --- |
| CC(=O)c1ccc(Nc2nc(C(N)CCc3ccccc3)cs2)cc1 (stereo unspecified) | inconclusive: 25.1 µM [inhibitor, single point] | – |
| CCCNC(=O)c1ccc(OC)cc1OC | inconclusive: 39.8 µM [inhibitor, single point] | – |
| COc1cc(CNc2ncnc3c2ncn3[C@H]2CN(Cc3cccc4ccccc34)C[C@@H](CO)O2)cc(OC)c1OC | inconclusive: 35.5 µM [inhibitor, partial curve, poor fit] | – |
| CCN1CCN(c2ccc(S(=O)(=O)N3CCCCC3)cc2NC(=O)C(C)Oc2ccc(F)cc2)CC1 (stereo unspecified) | – | inactive: 7.69% |
| Clc1ccc(-c2nnc(-c3ccccc3)c(N3CCSCC3)n2)cc1 | inconclusive: 35.5 µM [inhibitor, partial curve, poor fit] | – |
| CCCCc1c(-c2cccc(OC)c2)ncn1CCc1ccccc1OC | active: 22.4 µM | – |
| COCCn1c(C)cc(C2=NNC(=NC3CC3)SC2)c1C | active: 0.212 µM | – |
| Cc1cccc(-c2cc3nc(C)c(C)c(NCCCn4ccnc4)n3n2)c1 | inconclusive: 25.1 µM [inhibitor, single point] | – |
| COC(=O)C1=C(C)N(Cc2ccccc2)C(=NCc2ccccc2)N[C@H]1c1ccccc1 | inconclusive: 39.8 µM [inhibitor, single point] | – |
| CN1CCN(c2cccc(Nc3nc4c(-c5ccc(S(C)(=O)=O)cc5)cccn4n3)c2)CC1 | inconclusive: 24.3 µM [inhibitor, partial curve] | – |
| Nc1c(C(=O)NCc2ccc3c(c2)OCO3)c2nc3ccccc3nc2n1CCCN1CCOCC1 | inconclusive: 28.2 µM [inhibitor, single point] | – |
| O=C(c1ccc(S(=O)(=O)NCC2CCCO2)cc1)N1CCc2ccccc21 (stereo unspecified) | – | inactive: -15.3% |
| COc1ccc(-c2nc3ccc(NS(=O)(=O)c4ccccc4)cc3o2)cc1 | inconclusive: 39.8 µM [inhibitor, single point] | – |
| CCN(CC)CCCNC(=O)c1cc(-c2ccc(O)cc2)on1 | – | inactive: 0% |
| CCc1c(C)sc(NC(=O)c2cc(-c3ccc(OC)cc3)on2)c1C#N | – | inactive: 7.31% |
| O=C(Nc1nc(-c2ccc(-c3ccccc3)cc2)cs1)C1=COCCO1 | inconclusive: 25.1 µM [inhibitor, single point] | – |
| Cc1ccc(C(C2=C(O)CC(C)(C)CC2=O)C2C(=O)CC(C)(C)CC2=O)s1 (stereo unspecified) | – | inactive: 0.999% |
| COc1ccc(C(=O)NC2CCN(C(=S)NCCc3ccccc3)CC2)cc1 | inconclusive: 39.8 µM [inhibitor, single point] | – |
| Cc1cc(Br)c(OCc2ccc(C(=O)N/N=C/c3ccc[nH]3)cc2)c(Br)c1 | – | inactive: -62.7% |
| C#CCOCCOCCOCCNc1nc(N2CCN(C(=O)CCCCCCCCCCNC(=O)Cn3cc(CCCCCN)nn3)CC2)nc(N2CCN(C(=O)CCCCCCCCCCNC(=O)[C@H]([C@@H](C)CC)n3cc(CCCCN=C(N)N)nn3)CC2)n1 | active: 20 µM | – |
| CCOC(=O)N1CCN(C(=O)c2ccc3c(c2)N(Cc2cc(C)ccc2C)C(=O)c2ccccc2S3=O)CC1 (stereo unspecified) | inconclusive: 8.91 µM [inhibitor, partial curve] | – |
| OC(COC(c1ccc(Cl)cc1)c1ccc(Cl)cc1)CN1CCCC1 (stereo unspecified) | inconclusive: 31.6 µM [inhibitor, single point] | – |
| Cc1ccc(C)c(N2CCN(CCCNC(=O)Cn3cccc3C(=O)c3ccccc3C)CC2)c1 | inconclusive: 18.9 µM [inhibitor, partial curve, poor fit] | – |
